Assay results published in PubChem BioAssay AID485313 (National Center for Advancing Translational Sciences (NCATS), 2010).
The whole screen tested about 320,000 compounds, of which about 7,600 (2.4%) were called active. Inconclusive results, whose numbers are uncertain, are shown with a selection of clear calls. The call rests on the fitted dose curve; in most records, active means well fitted activation curve with a large enough effect; inconclusive means small, poorly fitted or top-dose-only effect; inactive means no such curve, though single readings can be large or run the other way. Potencies of inconclusive entries are left out as doubtful fits.

Experiment: qHTS Assay for NPC1 Promoter Activators; further: nearly all actives have a fitted effect of over 60% in size;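 on activation: reporter is driven by a mutant NPC1 promoter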
Settings: Huh7 NPC1 promoter luciferase reporter, 24 h; series mostly up to 9.22 µM
Procedure, shortened: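 In 1536-well qHTS, Huh7 cells harboring an NPC1 promoter–luciferase construct received compound for 24 h; activation was quantified by luminescence following luciferase reagent addition.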
Potency means the concentration at half of the fitted maximal effect; tags describe the fitted curve by direction and shape.

SMILES	Potency
COc1ccc(-c2cn3c(C)c(C(=O)Nc4cccc(C)n4)sc3n2)cc1	inactive
COc1ccc(NC(=O)Nc2ccccc2F)cc1Cl	active: 1.78 µM
Oc1ccc(/C=N/Nc2ccc(C(F)(F)F)cn2)cc1	inconclusive [activator, single point]
Oc1ccc(/C=C/c2ccc(/C=C/c3ccc(O)cc3)c(Br)c2)cc1	inconclusive [activator, full curve, poor fit]
O=C(CSc1nnc(-c2ccc(F)cc2)o1)N1CCCCC1	inconclusive [activator, partial curve]
COCc1ccc(C(=O)N(C)CC2CCCN(CCc3ccc(OC)cc3)C2)o1 (stereo not given)	inconclusive [activator, single point]
Brc1ccc(CSc2nnc(-c3ccco3)o2)cc1	inactive
CCn1c(NC(=S)Nc2ccccc2)nc2ccccc21	inconclusive [activator, single point]
CC(=O)Nc1ccc(N2C(=O)CSC2c2cccc(Br)c2)cc1 (stereo not given)	inactive
CC1CCN(C(=O)CSc2nnc(-c3cccs3)o2)CC1	inactive
CC1=NN(C(N)=S)C(=O)C1N=Nc1cccc(C)c1 (stereo not given)	inconclusive [activator, partial curve]
CC(C)C(=O)Nc1ccccc1C(=O)OCC(=O)c1ccc2c(c1)OCCO2	inconclusive [activator, partial curve]
CC(=O)c1cccc(NC(=O)N2CCc3ccccc3C2)c1	active: 3.98 µM
COc1ccc2c(C(=O)CN3CCSCC3)c[nH]c2c1	inconclusive [activator, single point]
COc1ccc(-n2nc3c(c2NC(=O)CCCl)CSC3)cc1	inactive
C=CCn1cc(/C=N/Nc2nc3ccccc3[nH]2)c2ccccc21	inactive
CN(C)/C=N/C(=S)Nc1ccc(Cl)cc1Cl	inconclusive [activator, single point]
CN(Cc1c(O)ccc2c1oc(=O)c1ccccc12)C1CCCCC1	inactive
CCn1ccc(C(=O)Nc2ccccc2SC)n1	inconclusive [activator, partial curve]
Cc1csc(Nc2ccc(Cl)cc2)n1	inconclusive [activator, partial curve]
COc1ccc(/C=C2\SC(=S)N(CCC(=O)Nc3ccc(O)cc3)C2=O)cc1	inconclusive [activator, single point]
Cc1cc(C)c2[nH]c(C(=O)Nc3ccc(F)cc3Br)cc2c1	inconclusive [activator, partial curve]
Cc1cc(C)n2nc(-c3ccc(F)cc3)nc2n1	active: 3.98 µM
O=C(NCc1ccccc1Cl)NCc1ccccc1Cl	inconclusive [activator, partial curve, poor fit]
COc1ccc2cc(-c3ccccc3)ncc2c1	active: 0.562 µM
CN(C)/C=C/C(=O)c1nn(-c2ccc(F)cc2)ccc1=O	inactive
Cc1ccccc1NC(=O)c1csc2c1CCCC2	inconclusive [activator, partial curve]

SMILES	Potency
O=C(CSc1ncccc1-c1nc2ccccc2[nH]1)N1CCc2ccccc21	inconclusive [activator, single point]
N#CC(C#N)=C(Nc1ccc(F)cc1)SCc1cccc(F)c1	inconclusive [activator, single point]
O=C(NCc1cccc(Cl)c1)c1cnn2c1NC(c1ccco1)CC2C(F)(F)F (stereo not given)	inactive
COc1ccc(C2=NS(=O)(=O)N(C)C(C(=O)NCc3ccccc3)=C2)cc1OC	inactive
CSc1ccccc1OCc1cc(C(=O)N2CCN(c3ccccc3)CC2C)no1 (stereo not given)	inconclusive [activator, partial curve]
Cc1cc2ccccn2c1C(=O)c1ccc(S(=O)(=O)N(C)C)cc1	inactive
CC(=O)Nc1ccc2nc(C)n(Cc3ccc(Cl)cc3)c(=O)c2c1	inconclusive [activator, partial curve]
COc1ccc(C(=O)Nc2ccccn2)cc1	inactive
Clc1ccc(Nc2nc(-c3cccs3)cs2)nc1	inconclusive [activator, single point]
Cc1cccc(NC(=O)/C=C/c2cccs2)n1	active: 2.82 µM
Cc1cccc(-c2noc(Cc3ccccc3)n2)c1	inconclusive [activator, single point]
COc1ccc2nc(NC(=O)c3ccccc3O)sc2c1	active: 1.26 µM
CC(=O)C1CCCN(C(=O)c2ccc3oc(CCc4ccccc4)nc3c2)C1 (stereo not given)	inconclusive [activator, single point]
CCOC(=O)c1c(NC(=O)Cn2nnc(-c3ccc(Cl)cc3)n2)sc(CC)c1C	inactive
COc1ccc(C2C(=O)c3ccccc3C2=O)cc1	inconclusive [activator, single point]
O=C(Nc1ccc2c(c1)ncn2-c1ccccc1)c1ccco1	inconclusive [activator, partial curve]
CC(C)(C)OC(=O)[C@H](Cc1ccccc1)NC(=O)c1nc[nH]c1C(=O)N1CCc2ccccc2C1	inactive
CN(Cc1ccc(F)cc1)Cc1nc(-c2ccccc2)no1	inconclusive [activator, single point]
Cc1cc(C)nc(SCC(=O)NCC2COc3ccccc3O2)n1 (stereo not given)	inactive
CC(C)c1nnc(NC(=O)c2cccnc2)s1	inconclusive [activator, partial curve]
Cc1cc(NC(=O)c2cccnc2)ccc1Br	inconclusive [activator, single point]
Cc1ccc(Nc2nc(Cl)nc(NC(C)(C)C)n2)cc1	inconclusive [activator, partial curve]
COc1ccc(-n2c(C)nnc2SCC(=O)N2CCOCC2)cc1	inactive
COc1ccc2cc(C(=O)NCCc3ccccc3)[nH]c2c1	inconclusive [activator, single point]
Clc1ccc(-c2csc(-c3cccnc3)n2)s1	inactive
Cc1ccc(SCc2ccc(C(=O)Nc3nccs3)o2)cc1	inconclusive [activator, single point]
CC(=O)c1cccc(Nc2cc(C)nc3ccccc23)c1	inconclusive [activator, single point]

SMILES	Potency
C/C(=N\Nc1nccnc1Cl)c1ccc(Br)cc1	inconclusive [activator, single point]
Cc1ccc(CCNC(=O)c2cc(-c3ccncc3)nc3ccccc23)cc1	inactive
CC(C)(C)NC(=O)NCCc1ccccc1	active: 1.41 µM
CCC(C)N(C(=O)CSc1nnnn1-c1ccccc1OC)C1CCS(=O)(=O)C1 (stereo not given)	inactive
COc1ccccc1N1CCN(C(=O)c2ccc(COc3cccc4c3OC(C)(C)C4)cc2)CC1	inactive
O=C(Cc1cccs1)Nc1nc2ccccc2s1	inconclusive [activator, single point]
Cc1cc(C(=O)Nc2ccccc2)oc1C	inconclusive [activator, single point]
N#CCCCSc1ncccc1-c1nc2ccccc2[nH]1	inconclusive [activator, partial curve]
Cc1oc2c(C)c3oc(=O)c(CCC(=O)N4CCC(C(=O)NCCC(=O)O)(c5ccccc5)CC4)c(C)c3cc2c1C	inactive
Cc1sc(NC(=O)C2CCCCC2C(=O)O)c(C(N)=O)c1-c1ccc(C(C)C)cc1 (stereo not given)	inconclusive [activator, partial curve]
Cn1c(CSc2nc3ccccc3s2)nc2ccccc21	inconclusive [activator, partial curve]
CC(C)[C@@]1(c2ccc(Cl)cc2)ON(c2ccccc2C(F)(F)F)C1=O	inactive
O=C(CNC(=O)c1ccc2c(c1)S(=O)(=O)N=C1CCCCCN12)Nc1ccc(F)c(F)c1	inactive
C=CCCN(Cc1ccccc1)S(=O)(=O)c1cc(Br)ccc1Br	inactive
COc1ccc(-n2nc3c(c2NC(=O)CBr)CSC3)cc1	inactive
COc1ccccc1N(C(=O)c1snc(C(N)=O)c1N)C(C(=O)NC1CCCCC1)c1cccc(OC)c1OC (stereo not given)	inconclusive [activator, single point]
CCc1nc(SCc2ccc(Cl)cc2)n[nH]1	inconclusive [activator, single point]
Cc1ccc(C(=O)NNC(=O)c2cccs2)cc1	inconclusive [activator, partial curve]
O=C(Nc1ccc2c(c1)OCO2)c1ccc(Cl)s1	active: 2.24 µM
CC(=O)Nc1ccc(NC(=O)C(C)Oc2ccccc2C(=O)NCc2ccccc2)cc1 (stereo not given)	inactive
CN(C)S(=O)(=O)c1ccc(C(=O)NCCSc2ccccc2)cc1	inconclusive [activator, partial curve]
CC(=O)Nc1ccc(S(=O)(=O)N2CCN=C2SCc2ccc(F)cc2)cc1	inactive
CCN(CC)c1ccc(/C=N/NC(=O)c2c[nH]c3ccccc23)cc1	inactive
COc1cccc(-c2cc3onc(-c4ccccc4)c3c(=O)n2C)c1	active: 0.708 µM
CN(C)S(=O)(=O)Oc1cccc(C(=O)Nc2cccc(Cl)c2)c1	inconclusive [activator, single point]
O=C(O)c1cccc(-c2nnn(Cc3ccccc3)n2)c1	active: 1.41 µM
